T1: RBFOX1 RRM (Homo sapiens, UniProt Q9NWB1 109-208)
T1 sequence: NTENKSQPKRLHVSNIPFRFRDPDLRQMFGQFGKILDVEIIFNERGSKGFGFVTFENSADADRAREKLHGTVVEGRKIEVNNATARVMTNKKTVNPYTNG

B1: GAGCAAU (DNA:RNA)
RNA: GGGAGACCGGAAUUCAGAUUGUCCGAGCAAUUUAAAUCCCGUCGUAGCCACCA
DNA 1: CAATCTGAATTCCGGTCTCCC
DNA 2: TGGTGGCTACGACGGGATT
B2: CUUUGGU (DNA:RNA)
RNA: B1 RNA with G25C, A26U, G27U, C28U, A29G, A30G
DNA 1: CAATCTGAATTCCGGTCTCCC
DNA 2: TGGTGGCTACGACGGGATT
B3: UCAUCGA (DNA:RNA)
RNA: GGGAGACCGGAAUUCAGAUUGUCCUCAUCGAUUAAAUCCCGUCGUAGCCACCA
DNA 1: CAATCTGAATTCCGGTCTCCC
DNA 2: TGGTGGCTACGACGGGATT
B4: GUAACAU (DNA:RNA)
RNA: B1 RNA with A26U, G27A, C28A, A29C
DNA 1: CAATCTGAATTCCGGTCTCCC
DNA 2: TGGTGGCTACGACGGGATT
B5: AUGAGGC (DNA:RNA)
RNA: B1 RNA with G25A, A26U, C28A, A29G, A30G, U31C
DNA 1: CAATCTGAATTCCGGTCTCCC
DNA 2: TGGTGGCTACGACGGGATT
B6: UUGGUCC (DNA:RNA)
RNA: B1 RNA with G25U, A26U, C28G, A29U, A30C, U31C
DNA 1: CAATCTGAATTCCGGTCTCCC
DNA 2: TGGTGGCTACGACGGGATT
B7: CGUGAGU (DNA:RNA)
RNA: B1 RNA with G25C, A26G, G27U, C28G, A30G
DNA 1: CAATCTGAATTCCGGTCTCCC
DNA 2: TGGTGGCTACGACGGGATT
B8: UCGGAGU (DNA:RNA)
RNA: B1 RNA with G25U, A26C, C28G, A30G
DNA 1: CAATCTGAATTCCGGTCTCCC
DNA 2: TGGTGGCTACGACGGGATT
B9: CGGCCUA (DNA:RNA)
RNA: B1 RNA with G25C, A26G, A29C, A30U, U31A
DNA 1: CAATCTGAATTCCGGTCTCCC
DNA 2: TGGTGGCTACGACGGGATT
B10: UAUCGAU (DNA:RNA)
RNA: B1 RNA with G25U, G27U, A29G
DNA 1: CAATCTGAATTCCGGTCTCCC
DNA 2: TGGTGGCTACGACGGGATT
B11: GGCGUAC (DNA:RNA)
RNA: B1 RNA with A26G, G27C, C28G, A29U, U31C
DNA 1: CAATCTGAATTCCGGTCTCCC
DNA 2: TGGTGGCTACGACGGGATT
B12: UUUUGAG (DNA:RNA)
RNA: B3 RNA with C26U, A27U, C29G, G30A, A31G
DNA 1: CAATCTGAATTCCGGTCTCCC
DNA 2: TGGTGGCTACGACGGGATT
B13: UUCUACU (DNA:RNA)
RNA: B1 RNA with G25U, A26U, G27C, C28U, A30C
DNA 1: CAATCTGAATTCCGGTCTCCC
DNA 2: TGGTGGCTACGACGGGATT
B14: GUCGAGU (DNA:RNA)
RNA: B1 RNA with A26U, G27C, C28G, A30G
DNA 1: CAATCTGAATTCCGGTCTCCC
DNA 2: TGGTGGCTACGACGGGATT
B15: AUCUGAC (DNA:RNA)
RNA: B1 RNA with G25A, A26U, G27C, C28U, A29G, U31C
DNA 1: CAATCTGAATTCCGGTCTCCC
DNA 2: TGGTGGCTACGACGGGATT
B16: AACGCCG (DNA:RNA)
RNA: B1 RNA with G25A, G27C, C28G, A29C, A30C, U31G
DNA 1: CAATCTGAATTCCGGTCTCCC
DNA 2: TGGTGGCTACGACGGGATT
B17: AACAUUC (DNA:RNA)
RNA: B1 RNA with G25A, G27C, C28A, A29U, A30U, U31C
DNA 1: CAATCTGAATTCCGGTCTCCC
DNA 2: TGGTGGCTACGACGGGATT
B18: GAAGCCC (DNA:RNA)
RNA: B1 RNA with G27A, C28G, A29C, A30C, U31C
DNA 1: CAATCTGAATTCCGGTCTCCC
DNA 2: TGGTGGCTACGACGGGATT
B19: UAAAUAG (DNA:RNA)
RNA: B1 RNA with G25U, G27A, C28A, A29U, U31G
DNA 1: CAATCTGAATTCCGGTCTCCC
DNA 2: TGGTGGCTACGACGGGATT
B20: GGCAAAU (DNA:RNA)
RNA: B1 RNA with A26G, G27C, C28A
DNA 1: CAATCTGAATTCCGGTCTCCC
DNA 2: TGGTGGCTACGACGGGATT
B21: GCCUUCC (DNA:RNA)
RNA: B3 RNA with U25G, A27C, C29U, G30C, A31C
DNA 1: CAATCTGAATTCCGGTCTCCC
DNA 2: TGGTGGCTACGACGGGATT
B22: UAGCCGC (DNA:RNA)
RNA: B1 RNA with G25U, A29C, A30G, U31C
DNA 1: CAATCTGAATTCCGGTCTCCC
DNA 2: TGGTGGCTACGACGGGATT
B23: GAAGUUA (DNA:RNA)
RNA: B1 RNA with G27A, C28G, A29U, A30U, U31A
DNA 1: CAATCTGAATTCCGGTCTCCC
DNA 2: TGGTGGCTACGACGGGATT
B24: UAAGGCC (DNA:RNA)
RNA: B3 RNA with C26A, U28G, C29G, G30C, A31C
DNA 1: CAATCTGAATTCCGGTCTCCC
DNA 2: TGGTGGCTACGACGGGATT
B25: GCAAUUC (DNA:RNA)
RNA: B3 RNA with U25G, U28A, C29U, G30U, A31C
DNA 1: CAATCTGAATTCCGGTCTCCC
DNA 2: TGGTGGCTACGACGGGATT
B26: GGAAUGU (DNA:RNA)
RNA: B1 RNA with A26G, G27A, C28A, A29U, A30G
DNA 1: CAATCTGAATTCCGGTCTCCC
DNA 2: TGGTGGCTACGACGGGATT
B27: GAGUCCC (DNA:RNA)
RNA: B1 RNA with C28U, A29C, A30C, U31C
DNA 1: CAATCTGAATTCCGGTCTCCC
DNA 2: TGGTGGCTACGACGGGATT
B28: GCCUAUC (DNA:RNA)
RNA: B1 RNA with A26C, G27C, C28U, A30U, U31C
DNA 1: CAATCTGAATTCCGGTCTCCC
DNA 2: TGGTGGCTACGACGGGATT
B29: AAAUCAC (DNA:RNA)
RNA: B3 RNA with U25A, C26A, G30A, A31C
DNA 1: CAATCTGAATTCCGGTCTCCC
DNA 2: TGGTGGCTACGACGGGATT
B30: ACGCGGA (DNA:RNA)
RNA: B3 RNA with U25A, A27G, U28C, C29G
DNA 1: CAATCTGAATTCCGGTCTCCC
DNA 2: TGGTGGCTACGACGGGATT
B31: GGAGGUU (DNA:RNA)
RNA: B1 RNA with A26G, G27A, C28G, A29G, A30U
DNA 1: CAATCTGAATTCCGGTCTCCC
DNA 2: TGGTGGCTACGACGGGATT

Changes are numbered by the printed parent chain; changes in the protein carry UniProt numbers. This is one part of the list.

For this test, the target named is T1, RBFOX1 RRM. In words: EMSA; HiTS-Eq, 1 nM pool, 10 min; buffer printed only for the single-RNA assays: 10 mM Tris pH 7.5, 150 mM NaCl, 3.4 mM EDTA, 0.001% NP-40, 30 C. The note with it: tags: His6 N-terminal (pET28a); label: 5' 32P. In outline:
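These values rest on relative association constants, computed from read-count changes of each RNA species versus the control reaction and normalised to the cognate motif. Reads came from free RNA recovered by 8% native PAGE after purified RbFox RRM (wild type or mutant) at increasing concentrations was equilibrated for 10 min in 50 µL with 1 nM of a 5′-radiolabelled pool with 7 randomized nucleotides and DNA-annealed flanks.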
Background: A gel shift assay detects complexes by their altered migration in electrophoresis.
On to B1, for which the binding signal was 0.00612 KA relative to UGCAUGU.

As to B2, the binding signal was 0.0169 KA relative to UGCAUGU.

Consider B3, for which the binding signal was 0.00866 KA relative to UGCAUGU.

Take B4: the binding signal was 0.00215 KA relative to UGCAUGU.

B5: the binding signal was 0.0125 KA relative to UGCAUGU.

As for B6, the binding signal is 0.0262 KA relative to UGCAUGU.

In the case of B7, the binding signal is 0.0154 KA relative to UGCAUGU.

For B8, the binding signal is 0.00719 KA relative to UGCAUGU.

B9: the binding signal was 0.00888 KA relative to UGCAUGU.

In the case of B10, the binding signal was 0.00993 KA relative to UGCAUGU.

B11: the binding signal was 0.0196 KA relative to UGCAUGU.

In the case of B12, the binding signal is 0.0242 KA relative to UGCAUGU.

As to B13, the binding signal was 0.00512 KA relative to UGCAUGU.

For B14, the binding signal is 0.0162 KA relative to UGCAUGU.

With B15, the binding signal was 0.014 KA relative to UGCAUGU.

On to B16, for which the binding signal is 0.00493 KA relative to UGCAUGU.

For the molecule B17, the binding signal was 0.00217 KA relative to UGCAUGU.

For the molecule B18, the binding signal was 0.00758 KA relative to UGCAUGU.

For B19, the binding signal was 0.00865 KA relative to UGCAUGU.

B20: the binding signal was 0.00495 KA relative to UGCAUGU.

B21: the binding signal is 0.00993 KA relative to UGCAUGU.

In the case of B22, the binding signal is 0.00928 KA relative to UGCAUGU.

For the molecule B23, the binding signal was 0.00696 KA relative to UGCAUGU.

Take B24: the binding signal is 0.0143 KA relative to UGCAUGU.

In the case of B25, the binding signal was 0.00667 KA relative to UGCAUGU.

As to B26, the binding signal is 0.0563 KA relative to UGCAUGU.

Regarding B27, the binding signal is 0.00017 KA relative to UGCAUGU.

As for B28, the binding signal is 0.00685 KA relative to UGCAUGU.

Take B29: the binding signal was 0.000306 KA relative to UGCAUGU.

As to B30, the binding signal was 0.00545 KA relative to UGCAUGU.

As to B31, the binding signal is 0.022 KA relative to UGCAUGU.

Source of the values: publication PMC9911399, “Two distinct binding modes provide the RNA-binding protein RbFox with extraordinary sequence specificity”.
